Results taken from article PMC4336329 (PLoS ONE, 2015).
The campaign covered roughly 310,000 compounds. About 14,000 (4.5%) showed an effect of 50% or more. The effect is printed as a negative number. The list shows a part of the results.

target: human ether-à-go-go-related gene (hERG) potassium channel (human, UniProt Q12809); assay: primary screen, population patch clamp on CHO cells stably expressing hERG
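Also: peak tail current of the secondary pulse compared with the same well before compound.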

Chain of human ether-à-go-go-related gene (hERG) potassium channel (Q12809 whole entry, looked up): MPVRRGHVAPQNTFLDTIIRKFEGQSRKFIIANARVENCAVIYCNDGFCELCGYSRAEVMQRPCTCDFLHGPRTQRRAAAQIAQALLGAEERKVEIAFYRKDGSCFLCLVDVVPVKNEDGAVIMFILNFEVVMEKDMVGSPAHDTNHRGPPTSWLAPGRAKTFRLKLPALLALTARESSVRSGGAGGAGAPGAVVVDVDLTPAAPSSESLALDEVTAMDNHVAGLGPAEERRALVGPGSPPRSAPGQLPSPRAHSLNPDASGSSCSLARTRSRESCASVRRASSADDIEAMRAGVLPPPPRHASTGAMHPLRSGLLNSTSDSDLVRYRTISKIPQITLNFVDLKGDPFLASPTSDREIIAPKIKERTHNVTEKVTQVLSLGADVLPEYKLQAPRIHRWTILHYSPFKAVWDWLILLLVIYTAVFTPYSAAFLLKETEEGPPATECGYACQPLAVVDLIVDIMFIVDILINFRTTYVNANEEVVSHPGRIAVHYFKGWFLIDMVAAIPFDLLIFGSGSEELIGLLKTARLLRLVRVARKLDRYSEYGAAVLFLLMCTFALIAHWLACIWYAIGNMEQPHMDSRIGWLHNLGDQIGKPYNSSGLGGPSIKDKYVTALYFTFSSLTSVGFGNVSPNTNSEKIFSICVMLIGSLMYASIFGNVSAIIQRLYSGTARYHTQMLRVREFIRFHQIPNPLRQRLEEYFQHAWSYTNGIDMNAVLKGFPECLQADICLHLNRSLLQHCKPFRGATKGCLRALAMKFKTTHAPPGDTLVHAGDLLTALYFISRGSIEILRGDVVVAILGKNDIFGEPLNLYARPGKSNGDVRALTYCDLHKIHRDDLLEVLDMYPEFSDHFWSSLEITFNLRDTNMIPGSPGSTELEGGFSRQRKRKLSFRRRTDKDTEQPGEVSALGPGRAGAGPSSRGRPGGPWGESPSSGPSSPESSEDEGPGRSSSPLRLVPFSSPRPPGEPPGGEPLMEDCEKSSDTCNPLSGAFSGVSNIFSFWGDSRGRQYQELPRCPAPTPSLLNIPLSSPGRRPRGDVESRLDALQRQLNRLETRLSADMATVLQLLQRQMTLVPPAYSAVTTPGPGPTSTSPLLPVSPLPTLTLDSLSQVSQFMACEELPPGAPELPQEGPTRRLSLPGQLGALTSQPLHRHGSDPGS

SMILES	hERG current change (%, negative = inhibition) at 10uM
CCOC(=O)C1(CCOC)CCN(Cc2ccncc2)CC1	8.26%
Cn1c(NN)nc2c1c(=O)n(Cc1ccccc1)c(=O)n2C	11.1%
Cc1ccc2[nH]c(=O)c(CN(CCCO)C(C)c3nnnn3Cc3ccco3)cc2c1 (stereo not shown)	1.37%
CC1SCC(=O)N(CC(=O)NCc2ccccc2)C1=O (stereo not shown)	20.4%
O=C(c1ccco1)N(CCC(c1ccccc1)c1ccco1)Cc1ccc(F)cc1 (stereo not shown)	-23.7%
CC1(C)Cc2c(cnn2-c2cccc(F)c2)C(NC(=O)c2csnn2)C1 (stereo not shown)	-78.3%
CCNC(=O)c1ccc(C2SCC(=O)N2Cc2ccco2)cc1 (stereo not shown)	1.32%
Cc1ccc(NC(=O)NC2CC(=O)N(c3ccc4c(c3)OCCO4)C2)cc1 (stereo not shown)	15.5%
O=S(=O)(NCc1cc(-c2ccccc2)no1)c1ccccc1Cl	12.4%
CC1(C)Nc2ccccc2C(=O)N1c1ccccc1	20.5%
O=C(O)c1cccc(NC(CNS(=O)(=O)c2ccc(Cl)cc2)c2ccccc2)c1 (stereo not shown)	16.5%
CCC(Oc1ccccc1)C(=O)Nc1nnc(C(F)(F)F)s1 (stereo not shown)	6.98%
O=C(O)[C@H]1CCC(=O)N1Cc1ccco1	4.59%
CCOC(=O)C1C(=O)NC(N2CCCCC2)=NC1c1ccco1 (stereo not shown)	8.22%
Cn1cc(C(=O)NCc2ccccc2F)cn1	13.2%
CCCOc1ccc2c(C)c(CC(=O)OC)c(=O)oc2c1	-22.7%
CCOCCc1nnc(NC(=O)c2cccs2)s1	5.54%
CC1CCN(c2nc(-c3ccco3)c3c(c2C#N)CC(C)(C)OC3)CC1	8.62%
COc1ccccc1CCNC(=O)CNC(=O)Cc1cccc2ccccc12	-1.6%
S=C(NCCCc1ccccc1)Nc1ccccc1Cl	2.38%
O=C(N/N=C/c1ccc(N2CCOCC2)s1)c1ccccc1Cl	-4.31%
C[N+](C)(C)CCOC(=O)C1(c2ccccc2)CCCC1.[I-]	9.34%
O=C(Nc1ccncc1)c1ccc(Cl)c(S(=O)(=O)N2CCc3ccccc32)c1	-16.9%

SMILES	hERG current change (%, negative = inhibition) at 10uM
CCC(CC)C(=O)Nc1cccc(/C(C)=N/NC(=O)c2ccccc2Cl)c1	6.73%
COc1ccc(OCCCC(=O)Nc2ccc(N3CCOCC3)cc2)cc1	19.8%
Cn1c(=O)c2c(nc(CN3CCN(C(=O)c4ccco4)CC3)n2Cc2ccc(Cl)cc2)n(C)c1=O	-64.8%
O=C(O)CCCNC(=O)Cc1ccccc1	5.08%
O=C(O)Cc1ccc(NS(=O)(=O)c2ccccc2Cl)cc1	24.4%
CC(C)CCC(O)(CCC(C)C)C(=O)NNc1ccccc1	-0.649%
CCN(CC(=O)N1CCN(C)CC1)S(=O)(=O)c1ccc(Cl)cc1	-5.94%
O=C1C2CC=C(Cl)CC2C(=O)N1CNc1ccccn1 (stereo not shown)	15.7%
COc1ccc(Cl)cc1NC(=O)CN(C)CC(=O)Nc1ccc(Br)cc1	-7.27%
COc1ccccc1C(=O)NCC(c1cccnc1)N(C)C (stereo not shown)	3.5%
CC(=O)c1cccc(N=C2NC(=O)C(CO)(CO)S2)c1	-2.3%
CC(C)NC(=O)NS(=O)(=O)c1cnccc1N1CCCCC1	15.1%
CCOC(=O)C1=C(CC)Nc2ccccc2N=C1NC(=O)c1cccc(S(=O)(=O)N2CCOCC2)c1	-25.9%
O=C(Nc1ccc2c(c1)OCO2)C1CCN(S(=O)(=O)c2ccc3c(c2)OCCO3)CC1	7.45%
COc1ccc(CNC(=O)COc2cc(O)c3c(c2)OC(C)(C)CC3=O)cc1	-27.5%
Cc1cccc(-n2c(O)c(C=NC34CN5CN(CN(C5)C3)C4)c(=O)[nH]c2=O)c1	8.4%
CCOC(=O)Nc1cc(NC(=O)OCC)c(C)nc1C	-7.11%
CC(Oc1cc2oc(=O)c3c(c2cc1Cl)CCC3)C(=O)N1C[C@H]2C[C@@H](C1)c1cccc(=O)n1C2 (stereo partly shown)	-10.9%
Cc1ccccc1N1CCN(Cc2cccc(C(=O)O)c2)CC1.Cl	1.27%
CS(=O)(=O)N1CC(C(=O)NC2CC2)Oc2ccc(Cl)cc21 (stereo not shown)	0.0647%
Cc1nn(-c2ccccc2)c(Cl)c1/C=N\NC(=O)c1cnccn1	-5%
CC(=O)Nc1ccc(NC(=O)c2cc(=O)c3ccccc3o2)cc1	12.2%
CCOC(=O)/C(C)=N/NC(=O)c1ccc([N+](=O)[O-])cc1	3.05%

SMILES	hERG current change (%, negative = inhibition) at 10uM
CCN(C(=O)CSc1nc(-c2ccccc2)cn1N)c1c(N)n(Cc2ccccc2)c(=O)[nH]c1=O	-0.319%
O=C(NCC(c1ccc(F)cc1)N1CCOCC1)c1cccnc1Sc1ccccc1Cl (stereo not shown)	-14.9%
CC1=CC(=C(C#N)c2nc3ccccc3s2)C=C(C)N1CC1CCCO1 (stereo not shown)	7.19%
CCOC(=O)N1CCC(NC(=O)CN(C)S(=O)(=O)c2cc3c(cc2Cl)NC(=O)CO3)CC1	-3.47%
COc1ccc(CNC(=O)c2ccc(Cn3cc(Cl)cn3)o2)cc1	-27.9%
CC(Sc1nnnn1C)C(=O)Nc1ccc(Oc2ccccc2)cc1 (stereo not shown)	-16.2%
Cc1ccccc1NC(=O)Cn1c(=O)sc2ccccc21	-0.661%
COc1ccc(Br)cc1C(=O)O	-12.2%
CC(=O)c1c(N2CCOCC2)nc(=S)n(Cc2ccccc2)c1C	-17.5%
Cn1c(=O)c2c(SC3CCCC3)nc(C3CC3)nc2n(C)c1=O	18.8%
Cl.OC(CNCCCN1CCCCC1)COc1ccccc1 (stereo not shown)	-4.25%
Cc1ccc(S(=O)(=O)N2CCOC2CNC(=O)C(=O)NCCc2ccc(S(N)(=O)=O)cc2)cc1 (stereo not shown)	-12.7%
CC(C)CCNC(=O)C1CC(=O)N(CCc2ccccc2)C1 (stereo not shown)	5.93%
O=C(CNS(=O)(=O)c1cccc2nsnc12)NC1CCCCC1	5.59%
Cc1ccc(C(=O)O/N=C2\CCCc3ccccc32)cc1	8.69%
COc1cccc(CN(C)CC(=O)NCc2ccccc2Cl)c1OC	-7.66%
Cc1ccc(OCc2cc(C(=O)NCCc3cccnc3)no2)cc1C	-34.6%
COCCNC(=O)c1onc(CSc2ccccc2)c1C(=O)O	7.09%
Cc1cc2nccc(-c3ccncc3)n2n1	32.3%
COc1ccccc1N(CC(=O)NC1CC2CCC1C2)S(=O)(=O)c1ccc(C)cc1 (stereo not shown)	-38%
CC(=O)N1CCOc2ccc(S(=O)(=O)NCc3ccc(C)cc3)cc21	1.55%
CCOc1ccc(-c2nc(-c3cccs3)c(CC(=O)O)s2)cc1OC	19.1%
Cc1cccc(NC(=S)Nc2ccc(Cl)c(Cl)c2)c1	18.5%

SMILES	hERG current change (%, negative = inhibition) at 10uM
Cn1c(-c2sccc2OCc2cccc(C(F)(F)F)c2)n[nH]c1=S	-19.8%
COc1ccc(Cl)cc1NC(=O)/C=C\C(=O)O	-0.13%
CC(C)(C)c1ccc(-c2nc(C#N)c(N3CCC(C(N)=O)CC3)o2)cc1	-63.3%
O=C(C1CCCN(Cc2cc(Br)ccc2O)C1)N1CCCCC1.O=C(O)C(=O)O (stereo not shown)	-31.6%
CC1CCCN(C(=O)c2nn(C)c3c2CSc2ccccc2-3)C1 (stereo not shown)	-11.7%
COC(=O)C1CCN(C(=O)c2sc3nc(-c4ccc(F)cc4)cn3c2C)CC1	-59.5%
COCCn1c(SCC(=O)Nc2cc(C)on2)nc2ccccc2c1=O	-4.12%
O=[N+]([O-])c1cccc(-c2nc3ccc([N+](=O)[O-])cc3[nH]2)c1	8.34%
CC(C)Cn1c2c(c(O)c(C(=O)Nn3c(Cc4ccccc4)nc4ccccc4c3=O)c1=O)CCCC2	-23.4%
CCOC(=O)N1CCC(NC(=O)c2cnn3ccccc23)CC1	9.62%
CCOC(=O)C1=C(C)NC(C)=C(C(=O)OCC)C1C(=O)OCC(=O)N1CCC(C)CC1	16.7%
Cc1cccc(OCCCC(=O)Nc2ccc(Br)cc2)c1	15.8%
CN(C)C(=O)Oc1ccc2c(=O)c(Oc3ccccc3Br)coc2c1	7.02%
CC(C)c1ccc(NC(=O)NCc2cccnc2)cc1	11.9%
CCCCNC(=O)N(c1c(N)n(Cc2ccccc2)c(=O)[nH]c1=O)C1CCCC1	19.1%
CNc1ncnc(Sc2ccc(Cl)cc2)c1[N+](=O)[O-]	3.6%
C=COCCNC(=O)C(=O)NCC(C)C	-2.42%
CCOC(=O)c1c(C)n(C)c2cc([N+](=O)[O-])c(O)c([N+](=O)[O-])c12	1.25%
O=C(O)CCC(C(=O)O)n1c(O)c(C2=c3ccccc3=NC2=O)sc1=S (stereo not shown)	20.5%
N/C(=N\OC(=O)C1CCCCC1)c1cccnc1	14.1%
O=C(O)Cn1nc2c3c(cccc3c1=O)-c1ccccc1-2	8.18%
COc1ccc(OC)c(/C=N/NC(=O)CCc2c(C)n[nH]c2C)c1	6.79%
